PubChem BioAssay (NCATS)
Inconclusive results, whose numbers are uncertain, are shown with a selection of clear calls. Potencies of inconclusive entries are doubtful fits and often do not repeat. Activity calls are given as the source filed them. Calls follow the shape of the dose curve; as a rule, active = well fitted curve in the direction sought with a large enough effect; inconclusive = small, poorly fitted or top-dose-only effect, or another doubt; inactive = no such curve, though single readings can be large; an effect the other way counts as inactive or inconclusive.

Legend:
[1] = Primary qHTS for inhibitors of nuclear receptor binding SET domain protein 2 (NSD2) in an RCH-ACV wild type WT cells (2C) (AID 1645877); details: activity change, negative = cell killing: at 44.9 µM (top of the series); also: nearly all actives have a fitted effect of over 70% in size; as to activity change, negative = cell killing: % is scaled to controls: 0 for no effect and ±100 for the full control effect
CRL-7250 = normal cell line; assay: Cytotoxic Profiling of Annotated Libraries Using Quantitative High-Throughput Screening (AID 1296008); details: Five cell lines viability, CellTiter-Glo ATP luminescence, 48-72 h; max response: hits give low values; also: nearly all actives have a fitted effect of over 60% in size; as to max response: % is scaled to controls: 0 for no effect and ±100 for the full control effect
Outline: (§1)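 Compounds were pin-transferred onto cells and incubated 48 or 72 hr at 37 degree Celsius, 95% humidity. CellTiter-Glo was added, plates sat 10 min at room temperature, then ATP-coupled luminescence was imaged as the viability read-out.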

HEK293 = assay: as above; details: Five cell lines viability, CellTiter-Glo ATP luminescence, 48-72 h; max response: hits give low values
Outline: as §1

C33A = assay: Primary qHTS to identify gynecologic anti-cancer compounds using libraries of approved drugs and bioactive compounds (AID 1345084); details: Gynecologic cancer cell panel viability, ATPlite luminescence, 48 h; series mostly up to 57.5 µM; also: nearly all actives have a fitted effect of over 55% in size; as to activity change, negative = cytotoxicity: % is scaled to controls: 0 for no effect and ±100 for the full control effect
Outline: (§2)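 Cytotoxicity screen measuring ATP content by luciferase luminescence. Each compound is applied at five concentrations for 48 h at 37 C with 5% CO2.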

CAOV3 = assay: as above; details: Gynecologic cancer cell panel viability, ATPlite luminescence, 48 h; series mostly up to 57.5 µM
Outline: as §2

CASKI = assay: as above; details: Gynecologic cancer cell panel viability, ATPlite luminescence, 48 h; activity change, negative = cytotoxicity: at 57.5 µM (top of the series)
Outline: as §2

Es-2 = assay: as above; details: Gynecologic cancer cell panel viability, ATPlite luminescence, 48 h; series mostly up to 57.5 µM
Outline: as §2

HeLa = assay: as above; details: Gynecologic cancer cell panel viability, ATPlite luminescence, 48 h; series mostly up to 57.5 µM
Outline: as §2

Hek293T = assay: as above; details: Gynecologic cancer cell panel viability, ATPlite luminescence, 48 h, control line for the selectivity index; series mostly up to 57.5 µM
Outline: as §2

JEG-3 = assay: as above; details: Gynecologic cancer cell panel viability, ATPlite luminescence, 48 h; series mostly up to 57.5 µM
Outline: as §2

PA-1 = assay: as above; details: Gynecologic cancer cell panel viability, ATPlite luminescence, 48 h; series mostly up to 57.5 µM
Outline: as §2

SKOV3 = assay: as above; details: Gynecologic cancer cell panel viability, ATPlite luminescence, 48 h; series mostly up to 57.5 µM
Outline: as §2

Tov-21-G = assay: as above; details: Gynecologic cancer cell panel viability, ATPlite luminescence, 48 h; activity change, negative = cytotoxicity: at 57.5 µM (top of the series)
Outline: as §2

[2] = P-glycoprotein substrates identified in KB-8-5-11 adenocarcinoma cell line, qHTS therapeutic library screen (AID 1346987); also: nearly all actives have a fitted effect of over 65% in size
Outline: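 In this qHTS, P-gp-rich KB-8-5-11 cells received library compounds across a concentration range. Viability was quantified by luminescence after 72 h at 37 degree C.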

[3] = test system: Zika virus NS2B-NS3 protease (unlinked complex); assay: Primary screen GU Rhodamine qHTS for Zika virus inhibitors: Unlinked NS2B-NS3 protease assay (AID 1347159); also: nearly all actives have a fitted effect of over 60% in size
Outline: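 Buffer 10 mM Tris-HCl pH 8.0, 0.01% Tween 20. Unlinked protease 25 nM; compound preincubation 15 min, RT, protected from light. Substrate Rhod110, 1.5 microM; ~15% conversion in 15 min.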

[4] = Primary qHTS for inhibitors of nuclear receptor binding SET domain protein 2 (NSD2) in an isogenic RCH-ACV NSD2 p.E1099K mutant (9B) (AID 1645876); also: nearly all actives have a fitted effect of over 70% in size
[5] = Primary fluorescence-based thiol-reactive (MSTI) qHTS assay for identification of artifact compounds. (AID 1845221);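 also: thiol-reactive compounds lower the probe fluorescence signal; nearly all actives have a fitted effect of over 65% in size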
Outline: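 Curve-fitted percent inhibition (4-parameter Hill) derived from fluorescence, Ex 525/Em 598 nm, scaled with Acetyl-MSTI and MSTI; 1 h incubation at room temperature.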

OV90 = assay: Primary qHTS to identify gynecologic anti-cancer compounds using libraries of approved drugs and bioactive compounds (AID 1345084); details: Gynecologic cancer cell panel viability, ATPlite luminescence, 48 h; series mostly up to 57.5 µM; also: nearly all actives have a fitted effect of over 55% in size; as to activity change, negative = cytotoxicity: % is scaled to controls: 0 for no effect and ±100 for the full control effect
Outline: as §2

[6] = Primary qHTS for small molecule stabilizers of the endoplasmic reticulum resident proteome: Secreted ER Calcium Modulated Protein (SERCaMP) assay (AID 1508630); details: SH-SY5Y GLuc-SERCaMP (Gaussia luciferase released on ER calcium loss) secretion, thapsigargin, luminescence; activity change, negative = inhibition: at 38.4 µM (top of the series)
Outline: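 The SH-SY5Y reporter protocol was run at 3 concentrations up to 38.3 uM (primary) or 11 concentrations (follow-up): 16 h compound, 100 nM thapsigargin for 4 h, then extracellular luciferase luminescence.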
Potency is read from the fitted curve at half-maximal effect; tags tell the direction and shape of the fitted curve.

| SMILES | Potency [1] | Potency (CRL-7250) | max response (HEK293) | Potency (C33A) | Potency (CAOV3) | Potency (CASKI) | Potency (Es-2) | Potency (HeLa) | Potency (Hek293T) | Potency (JEG-3) | Potency (PA-1) | Potency (SKOV3) | Potency (Tov-21-G) | Potency [2] | Potency [3] | Potency [4] | Potency [5] | Potency (HEK293) | Potency (OV90) | Potency [6] |
| --- | --- | --- | --- | --- | --- | --- | --- | --- | --- | --- | --- | --- | --- | --- | --- | --- | --- | --- | --- | --- |
| C#CCN(Cc1cc2c(=O)n(C)c(CN3CCN(C)CC3)nc2cc1Cl)c1ccc(C(=O)NCc2cccnc2)cc1 | inactive | active: 0.0082 µM | inactive: -130% | inconclusive: 501 µM | active: 44.7 µM | inconclusive: 0.1 µM | inconclusive: 15.8 nM | inconclusive: 35.5 µM | inconclusive: 100 µM | inconclusive: 89.1 nM | inconclusive: 100 µM | inconclusive: 56.2 µM | inconclusive: 112 µM | – | – | – | – | – | – | – |
| O=C(NCc1cccs1)c1cc2nc(-c3ccco3)cc(C(F)(F)Cl)n2n1 | – | inconclusive: 18.4 µM [inhibitor, single point] | – | inactive | – | inactive | – | – | inactive | – | inconclusive: 7.08 µM [rising, single point] | – | – | inconclusive: 8.2 µM [inhibitor, partial curve] | inconclusive: 11.2 µM [inhibitor, full curve] | inactive | inconclusive: 10.6 µM [inhibitor, partial curve] | inconclusive: 29.1 µM [inhibitor, single point] | – | – |
| COc1ccc(Cl)c(Nc2ncnc3cc(OCC4CCN(C)CC4)c(OC)cc23)c1 | active: 13.2 µM | inconclusive: 16.4 µM [inhibitor, single point] | – | inconclusive: 7.94 µM [cytotoxic, partial curve] | active: 8.91 µM | inconclusive: 12.6 µM [cytotoxic, partial curve] | – | – | – | – | inconclusive: 28.2 µM [cytotoxic, single point] | active: 3.55 µM | – | – | – | – | – | inconclusive: 29.1 µM [inhibitor, single point] | inconclusive: 39.8 µM [cytotoxic, single point] | – |
| O=C(NCCCCCCCCNC(=O)C(Cl)Cl)C(Cl)Cl | inconclusive: 14.5 µM [inhibitor, single point] | inconclusive: 32.6 µM [inhibitor, single point] | – | – | inconclusive: 39.8 µM [cytotoxic, single point] | inconclusive: 25.1 µM [cytotoxic, partial curve, poor fit] | – | – | – | – | – | inconclusive: 31.6 µM [cytotoxic, single point] | – | inconclusive: 14.6 µM [inhibitor, partial curve, poor fit] | – | inconclusive: 23 µM [inhibitor, single point] | – | inconclusive: 29.1 µM [inhibitor, single point] | inconclusive: 17.8 µM [cytotoxic, partial curve] | – |
| Oc1ccc(Nc2nc(-c3ccc(Cl)cc3)cs2)cc1 | active: 6.61 µM | inconclusive: 29.1 µM [inhibitor, single point] | – | inconclusive: 22.4 µM [cytotoxic, single point] | – | – | – | inconclusive: 28.2 µM [cytotoxic, single point] | – | – | inconclusive: 31.6 µM [cytotoxic, single point] | inconclusive: 22.4 µM [cytotoxic, single point] | – | inconclusive: 16.4 µM [inhibitor, single point] | – | – | – | inconclusive: 23.1 µM [inhibitor, single point] | – | inconclusive: 891 nM [inhibitor, full curve, poor fit] |
| CS(=O)(=O)N1CCC(NC(=O)c2[nH]ncc2NC(=O)c2c(Cl)cccc2Cl)CC1 | – | active: 3.26 µM | – | inconclusive: 8.91 µM [cytotoxic, full curve, poor fit] | inconclusive: 7.94 µM [cytotoxic, full curve] | active: 7.94 µM | active: 4470 nM | – | active: 5.01 µM | – | – | inconclusive: 8.91 µM [cytotoxic, single point] | inconclusive: 6.31 µM [cytotoxic, full curve] | – | – | – | – | active: 1.16 µM | inconclusive: 3.98 µM [cytotoxic, full curve, poor fit] | – |
